The source of these data is patent publication US20090054323A1 (published 2009).

By IC50 is commonly meant the concentration needed to halve the response being measured. In general, Kd refers to the equilibrium constant for the complex coming apart. The low end stands for higher affinity, the high end for lower affinity.

Assay [1] concerns the target T1, human Ang-2 (human, UniProt O15123 19-496, limits assumed).
T1 construct: Sources differ by assay: R&D Systems 623-AN (mixture of 2 truncated versions) for initial screening; also called hAng-2; huAng-2
T1 sequence (looked up): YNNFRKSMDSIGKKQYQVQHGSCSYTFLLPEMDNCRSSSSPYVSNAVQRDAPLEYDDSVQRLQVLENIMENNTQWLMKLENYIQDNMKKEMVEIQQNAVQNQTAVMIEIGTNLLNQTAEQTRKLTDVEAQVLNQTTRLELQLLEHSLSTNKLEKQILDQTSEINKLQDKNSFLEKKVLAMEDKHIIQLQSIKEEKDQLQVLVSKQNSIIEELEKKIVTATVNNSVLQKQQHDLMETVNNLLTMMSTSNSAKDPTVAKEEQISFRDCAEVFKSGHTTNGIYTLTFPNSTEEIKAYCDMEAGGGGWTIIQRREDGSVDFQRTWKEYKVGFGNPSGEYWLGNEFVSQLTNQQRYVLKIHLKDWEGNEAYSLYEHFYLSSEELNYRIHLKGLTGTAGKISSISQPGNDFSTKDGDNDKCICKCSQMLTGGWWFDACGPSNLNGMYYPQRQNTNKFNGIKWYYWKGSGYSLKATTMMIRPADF
In words: neutralization ELISA vs Tie-2-Fc. The method, then:
(§1) Plates were incubated at room temperature for about 1 hour, after which they were washed five times with PBS containing about 0.1 percent Tween-20. […] Absorbance was then read in a spectrophotomer at 370 nm.
For orientation: ELISA stands for enzyme-linked immunosorbent assay.

Assay [2] addresses T2, murine Ang-2 (murine, UniProt O35608 19-496, limits assumed).
T2 construct: also called mAng-2; mouse Ang-2
T2 sequence (looked up): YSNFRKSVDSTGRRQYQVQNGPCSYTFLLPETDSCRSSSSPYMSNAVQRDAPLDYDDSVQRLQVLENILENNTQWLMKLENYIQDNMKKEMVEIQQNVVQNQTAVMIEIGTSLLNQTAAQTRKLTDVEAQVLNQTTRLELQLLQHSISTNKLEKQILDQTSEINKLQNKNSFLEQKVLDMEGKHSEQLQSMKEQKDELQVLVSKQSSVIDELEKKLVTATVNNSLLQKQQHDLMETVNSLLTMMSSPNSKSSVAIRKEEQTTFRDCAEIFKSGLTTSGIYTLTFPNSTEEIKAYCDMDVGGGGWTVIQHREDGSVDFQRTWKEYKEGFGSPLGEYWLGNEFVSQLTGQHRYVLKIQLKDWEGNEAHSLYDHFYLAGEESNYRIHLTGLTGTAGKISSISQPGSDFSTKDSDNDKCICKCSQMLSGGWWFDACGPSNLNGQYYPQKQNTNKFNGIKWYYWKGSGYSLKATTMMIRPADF
In words: neutralization ELISA vs Tie-2-Fc. The method, then:
as §1

Assay [3] addresses T3, rat Ang-2 (rat, UniProt O35462 19-496, limits assumed).
T3 construct: also called rAng-2
T3 sequence (looked up): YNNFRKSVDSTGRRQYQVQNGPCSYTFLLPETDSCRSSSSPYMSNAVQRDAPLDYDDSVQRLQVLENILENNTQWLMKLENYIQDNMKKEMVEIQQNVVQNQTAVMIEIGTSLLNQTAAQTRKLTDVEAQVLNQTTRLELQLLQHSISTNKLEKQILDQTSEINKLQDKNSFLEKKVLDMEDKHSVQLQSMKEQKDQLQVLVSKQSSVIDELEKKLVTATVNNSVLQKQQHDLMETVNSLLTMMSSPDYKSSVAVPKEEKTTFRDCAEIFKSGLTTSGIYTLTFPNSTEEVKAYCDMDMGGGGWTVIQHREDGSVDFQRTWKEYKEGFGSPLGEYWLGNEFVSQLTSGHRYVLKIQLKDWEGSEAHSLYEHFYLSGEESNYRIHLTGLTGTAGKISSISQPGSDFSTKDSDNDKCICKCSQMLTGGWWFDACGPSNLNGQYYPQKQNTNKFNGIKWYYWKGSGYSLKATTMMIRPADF
Kind of assay: neutralization ELISA vs Tie-2-Fc. The method, then: as §1

Assay [4] has as its target T4, cyno Ang-2 (cyno, UniProt A0A2K5VNX6 19-496).
T4 construct: also called cAng-2
T4 sequence: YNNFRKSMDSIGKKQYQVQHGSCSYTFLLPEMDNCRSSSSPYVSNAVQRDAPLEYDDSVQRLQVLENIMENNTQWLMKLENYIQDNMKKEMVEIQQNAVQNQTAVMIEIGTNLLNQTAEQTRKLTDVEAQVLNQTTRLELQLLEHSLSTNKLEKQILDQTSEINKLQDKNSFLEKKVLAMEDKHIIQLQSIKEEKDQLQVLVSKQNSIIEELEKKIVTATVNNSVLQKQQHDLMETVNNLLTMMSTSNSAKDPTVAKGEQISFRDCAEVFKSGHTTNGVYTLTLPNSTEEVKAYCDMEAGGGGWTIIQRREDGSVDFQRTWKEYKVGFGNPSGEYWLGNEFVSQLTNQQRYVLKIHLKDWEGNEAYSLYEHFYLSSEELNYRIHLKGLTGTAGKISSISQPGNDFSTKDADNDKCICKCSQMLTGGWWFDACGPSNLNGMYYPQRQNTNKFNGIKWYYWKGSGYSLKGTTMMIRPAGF
Kind of assay: neutralization ELISA vs Tie-2-Fc. On the procedure:
as §1

Assay [5] deals with T5, human Ang-1 (human, UniProt Q15389 16-498, limits assumed).
T5 construct: also called hAng-1
T5 sequence (looked up): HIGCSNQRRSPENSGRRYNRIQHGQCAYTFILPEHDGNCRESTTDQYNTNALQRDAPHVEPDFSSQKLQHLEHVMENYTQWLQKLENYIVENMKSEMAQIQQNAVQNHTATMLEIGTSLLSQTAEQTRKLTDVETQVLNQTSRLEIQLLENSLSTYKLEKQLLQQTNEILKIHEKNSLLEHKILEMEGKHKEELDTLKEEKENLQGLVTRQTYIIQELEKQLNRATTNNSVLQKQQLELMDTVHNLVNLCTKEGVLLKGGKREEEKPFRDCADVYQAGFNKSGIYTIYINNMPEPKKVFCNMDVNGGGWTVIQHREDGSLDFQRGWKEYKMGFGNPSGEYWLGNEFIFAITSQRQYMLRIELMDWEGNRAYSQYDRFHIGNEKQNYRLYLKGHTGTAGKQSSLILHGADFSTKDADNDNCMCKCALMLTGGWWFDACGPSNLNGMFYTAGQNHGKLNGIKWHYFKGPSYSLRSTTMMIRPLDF
Kind of assay: neutralization ELISA vs Tie-2-Fc. The method, then: as §1

Assay [6] addresses T1, human Ang-2. Kind of assay: KinExA, solution equilibrium, huAng-2-coated beads. (Kinetic exclusion samples the free partner from a solution-phase mixture.)

B1: 2xCon4 (C) 1K (Fc fusion)
chain: [human IgG1 Fc not written out]GGGGGAQQEECEWDPWTCEHMGSGSATGGSGSTASSGSGSATHQEECEWDPWTCEHMLE
notes: also called Pb5714
B1: the IC50 in assay [1] turned out to be 0.026 nM; in assay [2] it was 0.035 nM; in assay [3], 0.024 nM; in assay [4] it was 0.047 nM; in assay [5], 3 nM. In addition, in assay [6], the Kd is about 0.002 nM.
